PubChem BioAssay AID588591 (National Center for Advancing Translational Sciences (NCATS), 2011)
The whole screen tested about 390,000 compounds, of which about 4,700 (1.2%) were called active. Inconclusive results, whose numbers are uncertain, are shown with a selection of clear calls. Calls come from the whole dose curve; as a rule, active = well fitted inhibition curve with a large enough effect; inconclusive = small, poorly fitted or top-dose-only effect, or another doubt; inactive = no such curve, though single readings can be large or run the other way. Where the call is inconclusive, the potency comes from a doubtful curve fit.

The compounds below were run against DNA polymerase eta (Homo sapiens) (UniProt Q9Y253) (assay: qHTS for Inhibitors of Polymerase Eta). Details: recombinant Pol eta, fluorescent DNA replication assay; series mostly up to 114 µM; activity change, negative = inhibition: at the top concentration.
Sequence of UniProt Q9Y253 (Q9Y253 whole entry, looked up): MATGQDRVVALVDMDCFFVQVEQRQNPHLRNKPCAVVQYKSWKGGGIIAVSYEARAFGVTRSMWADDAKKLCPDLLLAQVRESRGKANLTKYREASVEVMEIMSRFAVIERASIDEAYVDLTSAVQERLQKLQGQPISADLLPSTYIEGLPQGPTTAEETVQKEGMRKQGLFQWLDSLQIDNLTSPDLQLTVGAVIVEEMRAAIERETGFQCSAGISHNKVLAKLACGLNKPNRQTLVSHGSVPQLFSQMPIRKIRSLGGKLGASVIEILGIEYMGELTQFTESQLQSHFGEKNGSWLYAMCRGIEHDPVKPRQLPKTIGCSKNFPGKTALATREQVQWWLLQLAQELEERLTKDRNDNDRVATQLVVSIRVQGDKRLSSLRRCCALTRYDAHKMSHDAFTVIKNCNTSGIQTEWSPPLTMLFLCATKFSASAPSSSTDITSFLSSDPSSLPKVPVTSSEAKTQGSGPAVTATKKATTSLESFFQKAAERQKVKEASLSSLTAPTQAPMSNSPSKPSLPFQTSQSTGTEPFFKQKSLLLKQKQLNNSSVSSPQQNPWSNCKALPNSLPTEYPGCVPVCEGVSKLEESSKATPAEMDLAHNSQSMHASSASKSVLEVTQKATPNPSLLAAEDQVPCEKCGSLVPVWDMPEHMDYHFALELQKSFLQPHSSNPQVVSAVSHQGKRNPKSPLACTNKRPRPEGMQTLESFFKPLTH
Summary of the method: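 Fluorescent replication assay: 50 nM final substrate added after a 15 min room-temperature compound preincubation with 10 nM enzyme. Signal taken at 0 min and again at 10 min.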
% is set by controls: 0 for no effect and ±100 for the full control effect; potency is the fitted concentration of half-maximal effect; tags give direction and shape of the fitted curve.

Row | Compound | activity change, negative = inhibition | Potency
1 | CCC(C)[C@H]1CNCCN1CC1(c2ccccc2)CC1 (some centres undefined) | inactive: -5.88% | –
2 | CCC(Sc1nc2ccccc2[nH]1)C(=O)Nc1cc(C)on1 (centres undefined) | – | inconclusive: 25.1 µM [inhibitor, single point]
3 | c1ccc(CNc2c3ccccc3nc3ccccc23)cc1 | – | inconclusive: 10 µM [inhibitor, partial curve, poor fit]
4 | O=C(Nc1ccccc1)c1nnsc1S(=O)(=O)c1ccc(Cl)cc1 | – | inconclusive: 20 µM [inhibitor, partial curve, poor fit]
5 | COC(=O)C1=C(O)/C(=C\c2ccc(CNS(=O)(=O)c3ccccc3)o2)N=C1C | – | inconclusive: 31.6 µM [inhibitor, partial curve]
6 | CCOc1ccc(S(=O)(=O)Nc2cc(SCC(=O)O)c(O)c3ccccc23)cc1 | – | active: 44.7 µM
7 | O=C(COc1ccccc1)N/N=C/c1sc(=O)n(Cc2cccc(C(=O)O)c2)c1Cl | – | active: 22.4 µM
8 | COc1ccc(C2=NOC(Cn3nc(C(=O)NCc4ccc(OC(F)(F)F)cc4)cc3-c3ccccc3)C2)cc1 (centres undefined) | – | inconclusive: 89.1 µM [inhibitor, partial curve, poor fit]
9 | Cc1ccc(C(=O)O)cc1-c1ccc(/C=C2/NC(=O)N(c3ccccc3)C2=O)o1 | – | active: 2.82 µM
10 | CCCNC(=O)CCn1c(=S)oc2ccccc21 | – | inconclusive: 89.1 µM [inhibitor, partial curve, poor fit]
11 | CCOC(=O)C1=C(COC(=O)COc2ccccc2C=O)NC(=O)NC1C (centres undefined) | – | active: 12.6 µM
12 | CCN(C(=O)COC(=O)c1ccc([N+](=O)[O-])o1)c1cccc2ccccc12 | – | inconclusive: 89.1 µM [inhibitor, partial curve, poor fit]
13 | Cn1c(C=O)c(C#Cc2ccccc2)c2ccccc21 | inactive: -11.1% | –
14 | COc1cc2c(cc1OC)CN(C(=O)Cn1ccccc1=O)CC2 | – | active: 35.5 µM
15 | CC(C)OCCCNC(=O)c1ccc2c(c1)N(Cc1c(F)cccc1Cl)C(=O)c1ccccc1S2 | – | inconclusive: 89.1 µM [inhibitor, partial curve, poor fit]
16 | N#C/C(=C\c1ccc(-c2cccc([N+](=O)[O-])c2)o1)C(=O)N1CCOCC1 | inactive: -0.489% | –
17 | Cc1ccc2cc(C=C(C#N)C#N)c(N3CCCCC3)nc2c1 | – | inconclusive: 35.5 µM [inhibitor, partial curve, poor fit]
18 | S=C(NCCc1ccccc1)Nc1cnc2ccccc2c1 | – | inconclusive: 79.4 µM [inhibitor, partial curve, poor fit]
19 | CCn1c(CSc2nc3ccccc3s2)nnc1SCC(=O)c1ccc(Cl)cc1 | inactive: -17% | –
20 | CCN(CC)c1ccc(C(=O)OCC(=O)Nc2cc(C)on2)cc1 | inactive: -6.64% | –
21 | COc1cc(C2c3c([nH]c(=O)[nH]c3=O)Nc3ccc4ccccc4c32)ccc1O (centres undefined) | – | inconclusive: 35.5 µM [inhibitor, partial curve]
22 | CCCNC(=O)COc1coc(CN2CCN(C(=O)c3ccco3)CC2)cc1=O | – | inconclusive: 39.8 µM [inhibitor, partial curve, poor fit]

Row | Compound | activity change, negative = inhibition | Potency
23 | CC(C)NC(=O)c1ccc2c(c1)N(CC(=O)Nc1ccccc1F)C(=O)C(C)(C)O2 | inactive: -14.2% | –
24 | CC(=O)c1ccc(S(=O)(=O)Nc2cccc(-c3ccc(N4CCCCCC4)nn3)c2)cc1 | – | inconclusive: 89.1 µM [inhibitor, single point]
25 | O=C(O)/C=C/c1ccc([N+](=O)[O-])o1 | – | active: 20 µM
26 | O=c1c2ccccc2nc(COc2ccccc2)n1/N=C/c1ccc(O)c(O)c1 | – | active: 31.6 µM
27 | Cc1ccc(CNC(=O)c2cc3c(=O)n4ccccc4nc3n(Cc3ccco3)c2=N)cc1 | – | inconclusive: 22.4 µM [inhibitor, single point]
28 | Nc1c(C(=O)Nc2ccc(Cl)c(C(=O)O)c2)sc2nc3c(cc12)CCCC3 | – | inconclusive: 25.1 µM [inhibitor, partial curve, poor fit]
29 | COc1ccc(NS(=O)(=O)c2cccc(C(=O)N/N=C/c3ccc(O)cc3)c2)cc1 | – | inconclusive: 31.6 µM [inhibitor, full curve]
30 | CC(=O)/C(N=Nc1cc(C)ccc1O)=C(\C)O | – | inconclusive: 56.2 µM [inhibitor, partial curve, poor fit]
31 | Cn1cccc1/C=C1\SC(=S)N(NC(=O)c2ccccc2O)C1=O | inactive: -9.15% | –
32 | COc1ccc(CN(C(=O)/C=C/c2ccco2)C2CCS(=O)(=O)C2)cc1OC (centres undefined) | inactive: 4.61% | –
33 | Cc1ccc(N2CC3=C(C2=O)C(c2ccccc2)NC(=O)N3C)cc1 (centres undefined) | – | inconclusive: 20 µM [inhibitor, full curve]
34 | C=CCn1c(C)cc(C(=O)Cn2c(C(C)O)nc3ccccc32)c1C (centres undefined) | inactive: -18.8% | –
35 | CS(=O)(=O)C1=NSC2=NC(=O)/C(=C\c3cccn3-c3ccc(Cl)cc3)C(=N)N21 | – | active: 22.4 µM
36 | COc1cc(NC(=O)c2cc(-c3cccs3)on2)cc(OC)c1OC | – | inconclusive: 35.5 µM [inhibitor, single point]
37 | Cc1ccc(CNC(=O)c2ccc(Cn3c(=O)c4ccccc4n(CC(=O)Nc4ccc(C)cc4C)c3=O)cc2)cc1 | – | inconclusive: 89.1 µM [inhibitor, single point]
38 | CC1=CC(C)(C)NC(=S)N1c1ccc(C)c(C)c1 | inactive: -5.47% | –
39 | c1ccc2nc3c(nc2c1)[nH]c1ccccc13 | – | inconclusive: 31.6 µM [inhibitor, single point]
40 | Cc1cccc(N2CCN(c3ncnc4c3nc3n4CCCCC3)CC2)c1C | – | inconclusive: 79.4 µM [inhibitor, partial curve, poor fit]
41 | C=CCN1C(=O)C(=O)N(CC(=O)c2ccc3c(c2)CCCC3)C1=O | inactive: -4.49% | –
42 | O=C1N=C(N2CCc3ccccc3C2)S/C1=C\c1cccc(O)c1 | – | inconclusive: 22.4 µM [inhibitor, full curve, poor fit]
43 | COc1ccc(OC(=O)c2cccc(S(=O)(=O)N3CC(C)OC(C)C3)c2)cc1 (centres undefined) | – | inconclusive: 25.1 µM [inhibitor, partial curve, poor fit]
44 | O=C1Nc2ccccc2C1=Nc1ccc(S(=O)(=O)Nc2nccs2)cc1 | – | active: 20 µM
